# In the RNAGym collection of RNA variant scans (doi:10.1101/gad.245936.114):
# Variants at the floor of the assay are shown more often than the library holds them.
# B1: tRNA (parent)
# chain: CUCUCGGUAGCCAAGUUGGUUUAAGGCGCAAGACUUUAAUUUAUCACUACGAAAUCUUGAGAUCGGGCGUUCGACUCGCCCCCGGGAGAUUUUUUCCUCGAGCAA
# Variants of: B1
# Assay: nonsense suppression (GFP-seq) (ratio to wild type); higher = more function; SUP4oc tRNA, yeast GFP reporter sort-seq
# How it was run: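 Yeast carrying genome-integrated SUP4oc tRNA variants from a library with ~3% random mutations were grown in raffinose/galactose medium with 80 mg/L adenine. Each strain also carried a galactose-driven GFP ochre reporter and RFP. Cells were sorted into GFP/RFP bins, and each bin was Illumina-sequenced (phred ≥30). Nonsense suppression (GFPSEQ) is the bin median GFP/RFP, weighted by each variant's estimated cell share per bin, relative to wild-type SUP4oc; variants needed ≥100 reads and ≥30 cells.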
row,Variant,nonsense suppression
1,G15U C64G,≤ 0.026
2,G15U C64U,≤ 0.026
3,G15U C64U G69C,≤ 0.026
4,G15U C75G C77A,≤ 0.026
5,G15U C75U,≤ 0.026
6,G15U C80A,≤ 0.026
7,G15U C82G,≤ 0.026
8,G15U G19A C81A,≤ 0.026
9,G15U G25A G28U G84U,≤ 0.026
10,G15U G25C,≤ 0.026
11,G15U G25C G73C,≤ 0.026
12,G15U G25C U55G U70G,≤ 0.026
13,G15U G26C A62G G65U,≤ 0.026
14,G15U G26C G59U,≤ 0.026
15,G15U G28C G61U G84C,≤ 0.026
16,G15U G32C G73U C81U,≤ 0.026
17,G15U G61A G67C C83A,≤ 0.026
18,G15U G61C G65A,≤ 0.026
19,G15U G61U A74G,≤ 0.026
20,G15U G65C G66C,≤ 0.026
21,G15U G66U,≤ 0.026

row,Variant,nonsense suppression
1,G15U G67A,≤ 0.026
2,G15U G67C,≤ 0.026
3,G15U G69C A74C G84A,≤ 0.026
4,G15U G86C,≤ 0.026
5,G15U G86U,≤ 0.026
6,G15U U16A C68U,≤ 0.026
7,G15U U16C A24G G32C C56G G88U,≤ 0.026
8,G15U U17A G67U,≤ 0.026
9,G15U U17C A60U,≤ 0.026
10,G15U U17C C34U,≤ 0.026
11,G15U U20A G65U C72U G86A,≤ 0.026
12,G15U U20C G61A,≤ 0.026
13,G15U U20G C27G A33G A54U,≤ 0.026
14,G15U U22A,≤ 0.026
15,G15U U22G A24U,≤ 0.026
16,G15U U35C G88C,≤ 0.026
17,G15U U55A U71G,≤ 0.026
18,G15U U57C C80G,≤ 0.026
19,G15U U71C C82A,≤ 0.026
20,G15U U76A,≤ 0.026
21,U16A A24U G28C C34A G67A,≤ 0.026

row,Variant,nonsense suppression
1,U16A A30C,≤ 0.026
2,U16A A30G U63A,≤ 0.026
3,U16A A31C,≤ 0.026
4,U16A A31G G86U,≤ 0.026
5,U16A A31U C34G C64A C83G,≤ 0.026
6,U16A A31U C75U,≤ 0.026
7,U16A A54G C77G,≤ 0.026
8,U16A A54U,1.06
9,U16A A60G,0.247
10,U16A A62G U76G,≤ 0.026
11,U16A A87C,≤ 0.026
12,U16A C27A U58G,≤ 0.026
13,U16A C27U G69U U71A C75G,≤ 0.026
14,U16A C29U,0.186
15,U16A C34G,≤ 0.026
16,U16A C34G U63C C77U G86C,≤ 0.026
17,U16A C56G G78C,≤ 0.026
18,U16A C56U A62U,≤ 0.026
19,U16A C68U G84U,≤ 0.026
20,U16A C72A U76C C79G,≤ 0.026
21,U16A C77U C82U,≤ 0.026

row,Variant,nonsense suppression
1,U16A G18C C82G,≤ 0.026
2,U16A G18U A33G G66C,≤ 0.026
3,U16A G19A,≤ 0.026
4,U16A G19U U21G,≤ 0.026
5,U16A G25A,≤ 0.026
6,U16A G25U C34A,≤ 0.026
7,U16A G25U G61A,≤ 0.026
8,U16A G26C,≤ 0.026
9,U16A G32C G88C,≤ 0.026
10,U16A G59A,0.32
11,U16A G59A G67U G88C,≤ 0.026
12,U16A G59U,≤ 0.026
13,U16A G59U G84C,≤ 0.026
14,U16A G61A,0.819
15,U16A G86C,≤ 0.026
16,U16A G88U,≤ 0.026
17,U16A U17G A31C U58C G78C,≤ 0.026
18,U16A U20A A30G G61C U76C,≤ 0.026
19,U16A U20A C82G,≤ 0.026
20,U16A U20G C27G,≤ 0.026
